# Test results as given in PubChem BioAssay AID1347073 (National Center for Advancing Translational Sciences (NCATS), 2019).
# The whole screen tested about 45,000 compounds, of which about 200 (0.44%) were called active. Not shown: some 7% with an inconclusive outcome. Calls come from the whole dose curve; as a rule, active = well fitted activation curve with a large enough effect; inconclusive = small, poorly fitted or top-dose-only effect; inactive = no such curve, though single readings can be large or run the other way. This is one part of the list.
# Assay: qHTS of TDP-43 Inhibitors: NCGC Sytravon Library Screen; note: 0% is about no effect; nearly all actives have a fitted effect of over 55% in size
# Details: yeast TDP-43 toxicity rescue, BacTiter-Glo growth, 24 h; series mostly up to 46.1 µM; growth rescue (activation): at the top concentration
# In short: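 TDP-43-expressing yeast, pregrown in raffinose, seeded at OD600 0.02 in galactose medium with compound for 24 hr at 30 deg C. Growth read by BacTiter-Glo luminescence, so rescue of toxicity appears as activation.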
SMILES,growth rescue (activation),Potency
O=C(OCc1ccccc1)c1cnc(Cl)c(Cl)c1,inactive: 1.72%,
O=C(COc1ccc(/C=N/NC(=O)c2ccncc2)cc1)Nc1ccccc1,inactive: 13.4%,
COCCCNC(=O)CCCn1c(=O)c2ccccc2n(Cc2cccc([N+](=O)[O-])c2)c1=O,inactive: 25.9%,
O=C(Cc1cc(=O)[nH][nH]1)N/N=C/c1c(Cl)cccc1Cl,,inactive
COc1cccc(NC2c3ccccc3C(=O)N2Cc2ccccc2Cl)c1 (stereo not given),inactive: 1.1%,
O=C(NC1CCOC1)c1ccc(OC2CCN(CCc3ccccc3)CC2)cc1 (stereo not given),inactive: 3.9%,
CCN(Cc1nc(-c2ccc(OC)cc2)no1)C(=O)c1ccoc1C,inactive: 21.8%,
OCC1(Cc2ccc(Cl)cc2)CCN(CCCc2ccccc2)CC1,inactive: -9.41%,
O=C(NCc1ccco1)C1CCCN1C(=O)Nc1ccc(Br)cc1 (stereo not given),inactive: -1.5%,
CCS(=O)(=O)N1CCC(C(=O)NCc2ccc(OC)cc2)CC1,inactive: 9.74%,
Cc1cccn2c(=O)c3cc(C#N)c(=NC(=O)c4cccs4)n(CC(C)C)c3nc12,inactive: -4.55%,
Cc1ccc(C)c(CN2C(=O)c3ccccc3S(=O)(=O)c3ccc(C(=O)N4CCc5ccccc54)cc32)c1,inactive: 13.5%,
Cc1cc(C(=O)Nc2ccccc2C(=O)O)ccc1NC(=O)COc1cccc([N+](=O)[O-])c1,inactive: 14.3%,
Cc1nn(C)c(Cl)c1CN1CCC(Oc2ccc(C(=O)N3CCCC3)cc2)CC1,inactive: 7.74%,
COc1ccc(C2C3=C(NCCN=C3c3ccccc3)C(=O)N2c2ccccc2)c(OC)c1 (stereo not given),inactive: 0.216%,
COc1ccc(CCNC(=O)CN(c2cccc([N+](=O)[O-])c2)S(C)(=O)=O)cc1,inactive: 14.8%,
O=C1CCC(C(=O)N2CCc3ccccc3C2)CN1CCCN1CCOCC1 (stereo not given),inactive: 5.38%,
CCCCOc1ccc(Cc2cnc(N)nc2N)cc1,inactive: 15.3%,
COc1ccc(-c2cc(-c3cccs3)nc(OC)c2C#N)cc1OC,inactive: 18.5%,
Nc1cc(S(=O)(=O)N2CCOCC2)ccc1Oc1cccc(Br)c1,inactive: 8.38%,
Cc1ccc(/C=C(/NC(=O)c2ccccc2)C(=O)NC(Cc2c[nH]c3ccccc23)C(=O)O)cc1 (stereo not given),inactive: 8.72%,
Cc1cccc(C)c1NC(=S)NC(=O)c1ccccc1F,inactive: 15.8%,
COc1cc(/C=N/n2c(C)n[nH]c2=S)ccc1OCc1ccccc1,inactive: 11.5%,
COc1ccc(-c2csc(NC(=O)CSc3ccc(Br)cc3)n2)c(OC)c1,inactive: 3.65%,
CN1CCN(c2ncnc3c2ncn3[C@H]2CN(Cc3ccncc3)C[C@@H](CO)O2)CC1,inactive: -4.42%,
CCC(C)NC(=O)NC(=O)CSc1nnc(-c2ccccc2F)n1C1CC1 (stereo not given),inactive: -18.5%,
O=C(NC1CCS(=O)(=O)C1)C1CCCN(S(=O)(=O)c2ccc(Cl)cc2)C1 (stereo not given),inactive: -21.6%,
CC1CC(=O)Nc2ccccc2N1C(=O)CSc1ccc2ccccc2n1 (stereo not given),inactive: -7.96%,

SMILES,growth rescue (activation),Potency
Cc1ccccc1OCC(=O)Nc1ccccc1-c1ccccc1NC(=O)COc1ccccc1C,inactive: 8.49%,
O=S(=O)(Nc1ccc(Oc2ncccn2)c(Cl)c1)c1ccc(F)cc1,inactive: 39%,
Oc1ccc(N2CCN(C(=S)NCc3ccccc3)CC2)cc1,inactive: 7.79%,
Cc1ccc(N(CC(=O)N/N=C/c2cccc(Br)c2)S(C)(=O)=O)cc1,inactive: -22.3%,
Cc1cc(C)cc(NS(=O)(=O)c2cccs2)c1,inactive: 2.79%,
Cc1ccc(C(=O)N[C@H](C(=O)OCC(=O)c2ccc[nH]2)C(C)C)cc1,inactive: -8.75%,
COCc1cccc(NC(=O)CCc2ccccc2)c1,inactive: 6.15%,
O=C(CSc1nnnn1C1CCCC1)NCCc1ccccc1,inactive: 3.3%,
O=c1c2ccccc2cnn1Cc1n[nH]c(=S)n1-c1ccccc1F,inactive: 4.93%,
COC(=O)N1CCN(CCc2ccccc2)CC1,inactive: 7.48%,
CCC(=O)NC(=S)Nc1ccc(NC(=O)c2ccc(OC)cc2)cc1,inactive: 26.2%,
Cc1cc(C(=O)CN2CCC(C)CC2)c(C)n1-c1ccccc1F,inactive: -0.572%,
O=[N+]([O-])c1ccc(S(=O)(=O)Nc2nnc(C3CCCCC3)s2)cc1,inactive: 11.9%,
CCCOc1ccc(C2Nc3cccc4cccc(c34)N2)cc1,inactive: 17.2%,
O=c1c(C=NCCCO)c(-c2ccccc2)[nH]n1-c1nc2ccccc2s1,inactive: -4.54%,
O=C1CCCC(O)=C1N=Nc1ccc(Cl)c(Cl)c1,inactive: 14.2%,
C=CCC(C(=O)c1ccccc1)[N+](C)(C)CC=C (stereo not given),inactive: -21.4%,
CC1CCCN(Cc2nc(Cc3ccccc3Cl)no2)C1 (stereo not given),inactive: -0.891%,
O=C(CN1CCCCCC1)Nc1ccc(Oc2ccccc2)cc1,inactive: 9.3%,
C/C=C/c1ccc(OCCCCOc2ccc(OC)cc2)c(OC)c1,inactive: 10%,
Cc1nn(C)cc1CN(C)C(=O)c1cc2nc(-c3ccco3)cc(C(F)(F)F)n2n1,inactive: 26.6%,
O=C(O)CC1c2ccccc2CCN1S(=O)(=O)c1ccc(F)cc1 (stereo not given),inactive: 3.47%,
Cc1cccc(C)c1NC(=O)CS(=O)CC(=O)Nc1ccc(N2CCOCC2)cc1 (stereo not given),inactive: -3.11%,
COC(=O)c1cccc(NC(=O)C2COc3ccccc3O2)c1C (stereo not given),inactive: 34.8%,
COc1cccc(CNc2nc3nc4c(c(=O)n3[nH]2)CCC4)c1,inactive: -3.89%,
N#Cc1ccccc1NC(=O)COC(=O)CCc1ccccc1,inactive: 33.3%,
O=C(CN1CCC(C(=O)c2ccc3c(c2)OCCO3)CC1)NCc1ccccc1,inactive: 8.98%,
